Test results from US20100009907A1, “Glucagon-Like Peptides and Uses Thereof” (AMYLIN PHARMACEUTICALS, INC., priority 2006, published 2010).
Part of at least one peptide drawing is inferred or uncertain, most often the ends. Where no end group is shown, it is not given here.

Assay: Acute food intake assay (FI Assay)
Format: in vivo, NIH/Swiss mice
Details: 1000 μg/kg intraperitoneal, relative to vehicle
Method: The effect of various test peptides on food intake is investigated using an acute food intake assay. This assay measures food consumption in lean, group-housed, overnight-fasted NIH/Swiss mice. Twelve mice are housed three to a cage. […] Decreased, as well as increased, food intake is measured. Testing of the various doses of the polypeptide generates ED50s.
Female NIH/Swiss mice (8-24 weeks old) are group housed with a 12:12 hour light:dark cycle with lights on at 0600. Water and a standard pelleted mouse chow diet are available ad libitum, except as noted. Animals are fasted starting at approximately 1500 hrs, 1 day prior to experiment. The morning of the experiment, animals are divided into experimental groups.
At time=0 min, all animals are given an intraperitoneal injection of vehicle or compound in an amount ranging from about 63 to 1000 μg/kg, and immediately given a pre-weighed amount (10-15 g) of the standard chow.

## CC[C@H](C)[C@H](NC(=O)[C@H](CC(C)C)NC(=O)[C@H](Cc1c[nH]c2ccccc12)NC(=O)[C@H](CC(=O)O)NC(=O)[C@@H](NC(=O)[C@H](Cc1ccccc1)NC(=O)[C@H](CCC(=O)O)NC(=O)[C@H](CCCCN)NC(=O)[C@H](C)NC(=O)[C@H](C)NC(=O)[C@H](CCCCN)NC(=O)[C@H](CCC(=O)O)NC(=O)[C@H](CCC(=O)O)NC(=O)[C@H](CC(C)C)NC(=O)[C@H](Cc1ccccc1)NC(=O)[C@H](CCC(N)=O)NC(=O)[C@@H](NC(=O)[C@@H](NC(=O)[C@H](CC(=O)O)NC(=O)[C@H](CC(N)=O)NC(=O)[C@@H](NC(=O)[C@H](Cc1ccc(O)cc1)NC(=O)[C@@H](NC(=O)CNC(=O)[C@H](CCC(=O)O)NC(=O)[C@H](C)NC(=O)[C@@H](N)Cc1c[nH]cn1)[C@@H](C)O)[C@@H](C)O)C(C)C)[C@@H](C)O)[C@@H](C)CC)C(=O)N[C@@H](CCCCN)C(=O)NCC(=O)N[C@@H](CCCCN)C(=O)N1CCC[C@H]1C(=O)N[C@@H](CCCCN)C(=O)N[C@@H](CCCCN)C(=O)N[C@@H](CCC(N)=O)C(=O)N[C@@H](CCCNC(=N)N)C(=O)N[C@@H](CC(C)C)C(=O)N[C@@H](CO)C(N)=O [compound 50]
  Food Intake % inhibition 30 min: 41%
  Food Intake % inhibition 60 min: 51%
  Food Intake % inhibition 120 min: 50%

## HAEGTYTNDVTYLEEKAAKEFIEWLIKGKPKKIRYS-NH2 (C-terminus assumed) [compound 41]
  Food Intake % inhibition 30 min: 1%
  Food Intake % inhibition 60 min: −1%
  Food Intake % inhibition 120 min: 9%
  Food Intake % inhibition 180 min: −1%

## CC[C@H](C)[C@H](NC(=O)[C@H](CC(C)C)NC(=O)[C@H](Cc1c[nH]c2ccccc12)NC(=O)[C@H](CC(=O)O)NC(=O)[C@@H](NC(=O)[C@H](Cc1ccccc1)NC(=O)[C@H](CCC(=O)O)NC(=O)[C@H](CCCCN)NC(=O)[C@H](C)NC(=O)[C@H](C)NC(=O)[C@H](CCCCN)NC(=O)[C@H](CCC(=O)O)NC(=O)[C@H](CC(=O)O)NC(=O)[C@H](CC(C)C)NC(=O)[C@H](CCC(N)=O)NC(=O)[C@H](CCC(N)=O)NC(=O)[C@@H](NC(=O)[C@@H](NC(=O)[C@H](CC(=O)O)NC(=O)[C@H](CO)NC(=O)[C@@H](NC(=O)[C@H](Cc1ccccc1)NC(=O)[C@@H](NC(=O)CNC(=O)[C@H](CCC(=O)O)NC(=O)[C@H](C)NC(=O)[C@@H](N)Cc1c[nH]cn1)[C@@H](C)O)[C@@H](C)O)C(C)C)[C@@H](C)O)[C@@H](C)CC)C(=O)N[C@@H](CC(N)=O)C(N)=O [compound 7]
  Food Intake % inhibition 30 min: 28%
  Food Intake % inhibition 60 min: 28%
  Food Intake % inhibition 120 min: 22%
  Food Intake % inhibition 180 min: 19%

## HAEGTYTNDVTEYLEEKAAKEFIEWLIPKKIRYS-NH2 (C-terminus assumed) [compound 32]
  Food Intake % inhibition 30 min: 13%
  Food Intake % inhibition 60 min: 19%
  Food Intake % inhibition 120 min: 10%

## HAEGTFTSDVTQQLDEKAAKEFIDALINGGPSKEIIS-NH2 (C-terminus assumed) [compound 13]
  Food Intake % inhibition 30 min: 33%
  Food Intake % inhibition 60 min: 38%
  Food Intake % inhibition 120 min: 16%
  Food Intake % inhibition 180 min: 5%

## HGEGTYTNDVTEYLEEKAAKEFIEWLIKGKPKKIRYS-NH2 (C-terminus assumed) [compound 26]
  Food Intake % inhibition 30 min: 55%
  Food Intake % inhibition 60 min: 68%
  Food Intake % inhibition 120 min: 75%
  Food Intake % inhibition 180 min: 75%

## HADGTYTSDVSSYLQDQAAKDFITWLKSGQPKPDAVETRSVDTL-NH2 [compound 49]
  Food Intake % inhibition 30 min: 40%
  Food Intake % inhibition 60 min: 34%
  Food Intake % inhibition 120 min: 14%

## CC[C@H](C)[C@H](NC(=O)[C@H](CC(C)C)NC(=O)[C@H](Cc1c[nH]c2ccccc12)NC(=O)[C@H](CCC(=O)O)NC(=O)[C@@H](NC(=O)[C@H](Cc1ccccc1)NC(=O)[C@H](CCC(=O)O)NC(=O)[C@H](CCCCN)NC(=O)[C@H](C)NC(=O)[C@H](C)NC(=O)[C@H](CCCCN)NC(=O)[C@H](CCC(=O)O)NC(=O)[C@H](CCC(=O)O)NC(=O)[C@H](CC(C)C)NC(=O)[C@H](Cc1ccc(O)cc1)NC(=O)[C@H](CCC(=O)O)NC(=O)[C@@H](NC(=O)[C@@H](NC(=O)[C@H](CC(=O)O)NC(=O)[C@H](CC(N)=O)NC(=O)[C@@H](NC(=O)[C@H](Cc1ccc(O)cc1)NC(=O)[C@@H](NC(=O)CNC(=O)[C@H](CCC(=O)O)NC(=O)[C@H](C)NC(=O)[C@@H](N)Cc1c[nH]cn1)[C@@H](C)O)[C@@H](C)O)C(C)C)[C@@H](C)O)[C@@H](C)CC)C(N)=O [compound 42]
  Food Intake % inhibition 30 min: 55%
  Food Intake % inhibition 60 min: 64%
  Food Intake % inhibition 120 min: 54%
  Food Intake % inhibition 180 min: 33%

## CC[C@H](C)[C@H](NC(=O)[C@H](CC(C)C)NC(=O)[C@H](Cc1c[nH]c2ccccc12)NC(=O)[C@H](CCC(=O)O)NC(=O)[C@@H](NC(=O)[C@H](Cc1ccccc1)NC(=O)[C@H](CCC(=O)O)NC(=O)[C@H](CCCCN)NC(=O)[C@H](C)NC(=O)[C@H](C)NC(=O)[C@H](CCCCN)NC(=O)[C@H](CCC(=O)O)NC(=O)[C@H](CCC(=O)O)NC(=O)[C@H](CC(C)C)NC(=O)[C@H](Cc1ccc(O)cc1)NC(=O)[C@H](CCC(=O)O)NC(=O)[C@@H](NC(=O)[C@@H](NC(=O)[C@H](CC(=O)O)NC(=O)[C@H](CC(N)=O)NC(=O)[C@@H](NC(=O)[C@H](Cc1ccc(O)cc1)NC(=O)[C@@H](NC(=O)CNC(=O)[C@H](CCC(=O)O)NC(=O)[C@H](C)NC(=O)[C@@H](N)Cc1c[nH]cn1)[C@@H](C)O)[C@@H](C)O)C(C)C)[C@@H](C)O)[C@@H](C)CC)C(=O)N[C@@H](CCCCN)C(=O)NCC(=O)N[C@@H](CCCCN)C(=O)N1CCC[C@H]1C(=O)N[C@@H](CCCCN)C(N)=O [compound 40]
  Food Intake % inhibition 30 min: 34%
  Food Intake % inhibition 60 min: 45%
  Food Intake % inhibition 120 min: 45%
  Food Intake % inhibition 180 min: 37%

## HAEGTYTNDVTEYLEEKAAKEFIEWLINGGPSKEIIS-NH2 (C-terminus assumed) [compound 21]
  Food Intake % inhibition 30 min: 48%
  Food Intake % inhibition 60 min: 64%
  Food Intake % inhibition 120 min: 73%
  Food Intake % inhibition 180 min: 76%

## HGEGTYTNDVTQFLEEKAAKEFIDWLIKGKPKKQRLS-NH2 (C-terminus assumed) [compound 55]
  Food Intake % inhibition 30 min: 52%
  Food Intake % inhibition 60 min: 64%
  Food Intake % inhibition 120 min: 69%
  Food Intake % inhibition 180 min: 72%

## HAEGTYTNDVTEYLEEKAAKEFIEWLIN-NH2 (C-terminus assumed) [compound 24]
  Food Intake % inhibition 30 min: 48%
  Food Intake % inhibition 60 min: 53%
  Food Intake % inhibition 120 min: 45%
  Food Intake % inhibition 180 min: 42%

## HAEGTFTSDVTQQLEEKAAKEFIEWLIKGKPKKIRYS-NH2 (C-terminus assumed) [compound 22]
  Food Intake % inhibition 30 min: 54%
  Food Intake % inhibition 60 min: 66%
  Food Intake % inhibition 120 min: 64%
  Food Intake % inhibition 180 min: 63%

## CC[C@H](C)[C@H](NC(=O)[C@H](Cc1ccccc1)NC(=O)[C@H](CCC(=O)O)NC(=O)[C@H](CCCCN)NC(=O)[C@H](C)NC(=O)[C@H](C)NC(=O)[C@H](CCCCN)NC(=O)[C@H](CCC(=O)O)NC(=O)[C@H](CCC(=O)O)NC(=O)[C@H](CC(C)C)NC(=O)[C@H](Cc1ccc(O)cc1)NC(=O)[C@H](CCC(=O)O)NC(=O)[C@@H](NC(=O)[C@@H](NC(=O)[C@H](CC(=O)O)NC(=O)[C@H](CC(N)=O)NC(=O)[C@@H](NC(=O)[C@H](Cc1ccc(O)cc1)NC(=O)[C@@H](NC(=O)CNC(=O)[C@H](CCC(=O)O)NC(=O)[C@H](C)NC(=O)[C@@H](N)Cc1c[nH]cn1)[C@@H](C)O)[C@@H](C)O)C(C)C)[C@@H](C)O)C(=O)N[C@@H](CCC(=O)O)C(=O)N[C@@H](Cc1c[nH]c2ccccc12)C(=O)N[C@@H](CC(C)C)C(N)=O [compound 44]
  Food Intake % inhibition 30 min: 17%
  Food Intake % inhibition 60 min: 16%
  Food Intake % inhibition 120 min: 9%
  Food Intake % inhibition 180 min: −6%

## HAEGTYTNDVTEYLEEKAAKFIEWLIKGKPKKIRYS-NH2 (C-terminus assumed) [compound 31]
  Food Intake % inhibition 30 min: −2%
  Food Intake % inhibition 60 min: 3%
  Food Intake % inhibition 120 min: 4%

## CC[C@H](C)[C@H](NC(=O)[C@H](Cc1ccccc1)NC(=O)[C@H](CCC(=O)O)NC(=O)[C@H](CCCCN)NC(=O)[C@H](C)NC(=O)[C@H](C)NC(=O)[C@H](CCCCN)NC(=O)[C@H](CCC(=O)O)NC(=O)[C@H](CCC(=O)O)NC(=O)[C@H](CC(C)C)NC(=O)[C@H](Cc1ccc(O)cc1)NC(=O)[C@H](CCC(=O)O)NC(=O)[C@@H](NC(=O)[C@@H](NC(=O)[C@H](CC(=O)O)NC(=O)[C@H](CC(N)=O)NC(=O)[C@@H](NC(=O)[C@H](Cc1ccc(O)cc1)NC(=O)[C@@H](NC(=O)CNC(=O)[C@H](CCC(=O)O)NC(=O)[C@H](C)NC(=O)[C@@H](N)Cc1c[nH]cn1)[C@@H](C)O)[C@@H](C)O)C(C)C)[C@@H](C)O)C(=O)N[C@@H](CCC(=O)O)C(=O)N[C@@H](Cc1c[nH]c2ccccc12)C(N)=O [compound 46]
  Food Intake % inhibition 30 min: −5%
  Food Intake % inhibition 60 min: −5%
  Food Intake % inhibition 120 min: −3%
  Food Intake % inhibition 180 min: −4%

## HAEGTYTNDTEYLEEKAAKEFIEWLIKGKPKKIRYS-NH2 (C-terminus assumed) [compound 39]
  Food Intake % inhibition 30 min: −13%
  Food Intake % inhibition 60 min: 0%
  Food Intake % inhibition 120 min: 5%
  Food Intake % inhibition 180 min: 4%

## HAEGTYTNDVTEYLEEKAAKEFIEWLIKGPKKIRYS-NH2 (C-terminus assumed) [compound 36]
  Food Intake % inhibition 30 min: 36%
  Food Intake % inhibition 60 min: 52%
  Food Intake % inhibition 120 min: 60%
